Some of the results follow.

The test concerns T1, C. trachomatis L2/434/Bu expressing GFP (CTL2-GFP).
T1 construct: L2/434/Bu GFP intracellular growth in HeLa cells
Set-up: species or system HeLa; C. trachomatis total inclusion area by high-content imaging, normalised to DMSO. The note with it: total inclusion area; 28.5 h, 10 µM; inhibitor. Put shortly:
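High-content images of fixed, Hoechst-stained infected cultures supply inclusion area and count (growth) plus nuclei number (viability), complementing bulk GFP/resorufin fluorescence. MIC determination is unchanged from the primary assay.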
As to `COCCN(C)c1ccc(C(=O)N2CCC(N3CCOCC3)CC2)cn1` [CBK306851], the “% of control remaining” value is reported as 81.2389.

For the compound `CC1(C)[C@H](Cc2cc(CC3CCCCC3)on2)C[C@@H]1NC(=O)N1CCOCC1` [CBK289258], the “% of control remaining” value is given as 92.4128.

`CC(C)(C)CC(C)(C)NC(=S)Nc1ccc2nc(-c3ccccn3)c(-c3ccccn3)nc2c1` [CBK265118]: the “% of control remaining” value was 34.8271.

Regarding `COc1ccc(C(=O)N2CCC3(CCCN(C(=O)c4ccc5ncccc5c4)C3)C2)cc1OC` (stereo not drawn) [CBK131656], the “% of control remaining” value amounted to 96.8515.

In the case of `Cc1nc(C(F)(F)F)ccc1C(=O)Nc1nc(CC(N)=O)cs1` [CBK305776], the “% of control remaining” value turned out to be 80.3818.

Regarding `Clc1ccc(CN2CCCN(c3nccc(OCC4COc5ccccc5O4)n3)CC2)cc1Cl` (stereo not drawn) [CBK083967], the “% of control remaining” value is on record as 65.1325.

In the case of `Cc1ccccc1OCC(O)CN1CCCC(C(F)(F)F)C1` (stereo not drawn) [CBK304873], the “% of control remaining” value is 71.4627.

As to `Nc1ccccc1CC(c1c[nH]c2ccccc12)c1c[nH]c2ccccc12` [CBK261780], the “% of control remaining” value worked out at 76.8285.

As for `COc1ccc(N(CC(=O)Nc2cccnc2)S(=O)(=O)c2ccccc2)cc1` [CBK262236], the “% of control remaining” value turned out to be 65.4175.

With `O=S1(=O)N=C(c2cccs2)C=C(C(F)(F)F)N1` [CBK019309], the “% of control remaining” value is 56.0268.

In the case of `O=[N+]([O-])c1ccc(N2CCN(Cc3c(O)ccc4ccccc34)CC2)cc1NCc1ccccc1` [CBK268408], the “% of control remaining” value is on record as 76.5401.

On to `O=C(Nc1ccncc1)c1ccc(CNS(=O)(=O)c2cccc(C(F)(F)F)c2)cc1` [CBK267181], for which the “% of control remaining” value was found to be 112.56.

For `CCNC(=O)N1C[C@@H]2OCC(=O)N(Cc3cccnc3)[C@@H]2C1` [CBK289682], the “% of control remaining” value is given as 108.477.

Take `NS(=O)(=O)c1ccc(CNC2CC(=O)N(CCc3ccccc3)C2=O)cc1` (stereo not drawn) [CBK262464]: the “% of control remaining” value is recorded as 94.3745.

For the compound `CCOC(=O)C1=C(c2ccccc2)Nc2ncnn2C1c1cccc(OC)c1OC` (stereo not drawn) [CBK266353], the “% of control remaining” value was 118.997.

As to `COc1ccc(NC(=O)c2ccc(N3CCN(Cc4ccccc4)CC3)c([N+](=O)[O-])c2)cc1` [CBK263260], the “% of control remaining” value came out at 81.2825.

In the case of `Cc1c(F)cccc1CN1CCCN(S(=O)(=O)c2ccc(-c3ccccc3)cc2)CC1` [CBK062977], the “% of control remaining” value is reported as 89.3141.

Take `O=C(c1ccc(Cl)cc1)N1CCN(C(=O)c2cc(O)nc3ccccc23)CC1` [CBK296666]: the “% of control remaining” value turned out to be 78.4338.

Turning to `O=C(Cc1nc2ccccc2[nH]1)N1CCOCC1` [CBK019505], the “% of control remaining” value is 109.347.

Consider `CN(C(=O)c1cccnc1)C(CC1CCCCC1)C1CCCCC1` (stereo not drawn) [CBK015849], for which the “% of control remaining” value is reported as 88.3764.

As to `Cc1ccc(OCc2nnc(SCc3cccc(C#N)c3)n2Cc2ccccc2)cc1C` [CBK266065], the “% of control remaining” value amounted to 125.405.

In the case of `CC(OC(=O)Cc1ccccc1[N+](=O)[O-])c1nnnn1-c1ccccc1` (stereo not drawn) [CBK297920], the “% of control remaining” value amounted to 86.3547.

For `CN(Cc1ccc(Br)cc1)C(=O)CNS(=O)(=O)c1cnn(C)c1` [CBK304553], the “% of control remaining” value was found to be 66.4167.

As to `Cc1ccc(C(=O)NNCc2ccccc2)c(NCc2cccnc2)n1` [CBK076369], the “% of control remaining” value worked out at 103.525.

On to `CN(CCc1ccccn1)C(=O)C1CN(C(=O)C2CC23CCC3)C1` (stereo not drawn) [CBK281969], for which the “% of control remaining” value amounted to 61.1372.

For the compound `Cc1cc(=O)oc2cc(NC(=S)NNC(=O)C(C)Oc3ccc4c(c3)CCC4)ccc12` (stereo not drawn) [CBK267031], the “% of control remaining” value is 122.805.

In the case of `COC(=O)CC1CCC(NC(=O)C(F)(F)F)CC1` (stereo not drawn) [CBK009129], the “% of control remaining” value is 35.9881.

Turning to `Cc1ccc(C(=O)O)cc1NC(=O)CSc1nc2scc(C3CC3)c2c(=O)n1-c1ccccc1` [CBK297481], the “% of control remaining” value came out at 102.23.

With `Cc1ccc(C2CCCN2C(=O)Cn2cc(C(=O)NCc3ccccc3)ccc2=O)cc1C` (stereo not drawn) [CBK286051], the “% of control remaining” value is on record as 119.322.

Consider `CSc1nnc(CCCNc2cccc(C#N)n2)n1CC(C)C` [CBK306449], for which the “% of control remaining” value worked out at 74.9988.

Turning to `O=C(Cc1ccccc1)N1CCN(S(=O)(=O)N2CCOCC2)CC1` [CBK268857], the “% of control remaining” value is recorded as 116.67.

As to `COc1ccc(/C=C2\SC(Nc3ccc(Cl)c(C(=O)O)c3)=NC2=O)cc1C` [CBK067743], the “% of control remaining” value came to 94.2384.

For the compound `COc1ccc(C(=O)COC(=O)c2cccc(N3C(=O)C4C5C=C(C)C(C5)C4C3=O)c2)cc1` (stereo not drawn) [CBK264808], the “% of control remaining” value was determined as 110.113.

For the compound `Cc1c(C(=O)NCC[S+](C)[O-])oc2c(C)cccc12` (stereo not drawn) [CBK282511], the “% of control remaining” value came to 102.763.

For the compound `CS(=O)(=O)NC1CCCN(c2nc(-c3ccsc3)nc3ccccc23)C1` (stereo not drawn) [CBK305623], the “% of control remaining” value came out at 74.7694.

Regarding `CCOC(=O)c1c(NC(=O)CN2CC(C)OC(C)C2)sc2c1CCC(C)C2` (stereo not drawn) [CBK264572], the “% of control remaining” value worked out at 100.016.

Consider `COc1ccc(NC(=O)c2c[nH]c3nc(C)ccc3c2=O)cc1` [CBK287816], for which the “% of control remaining” value is recorded as 114.757.

On to `CC(=O)N1CCc2nc(C)nc(NCCn3cccc3)c2CC1` [CBK307130], for which the “% of control remaining” value came to 84.1233.

Consider `Cn1c(=O)[nH]c(=O)c2cnc(-c3ccc(Cl)cc3)nc21` [CBK291208], for which the “% of control remaining” value is 53.4256.

Regarding `COc1cc(NC(=O)c2nn3c(c2Br)NC(c2cccs2)CC3C(F)(F)F)c(OC)cc1Cl` (stereo not drawn) [CBK263573], the “% of control remaining” value worked out at 121.473.

Regarding `CSc1[nH]nc(-c2ccc(C(C)(C)C)cc2)c1C#N` [CBK016999], the “% of control remaining” value amounted to 17.3232.

Consider `CC(C)CC(=O)N1CCN(Cc2nc3sc4c(c3c(=O)[nH]2)CCC4)CC1` [CBK305014], for which the “% of control remaining” value turned out to be 54.3676.

As to `CCn1nc(C)c(-c2cncn2CCCC(C)(C)CO)c1C` [CBK281807], the “% of control remaining” value is 89.5256.

Consider `c1ccc(C(Oc2nccnc2-c2ccsc2)c2ccccc2)cc1` [CBK106765], for which the “% of control remaining” value stood at 109.056.

Regarding `COc1ccc(Cn2c(=O)n(S(=O)(=O)c3cccc(-c4nnc(C)o4)c3)c3ccccc32)cc1` [CBK106558], the “% of control remaining” value is on record as 97.6894.

As for `O=C1NC(=O)C(CCCCN2CCCC3(CCN(C(=O)c4cc(F)c(F)cc4F)C3)C2)N1` (stereo not drawn) [CBK132020], the “% of control remaining” value was 102.609.

Regarding `c1coc(CNc2ncc(-c3ccc4c(c3)OCO4)c(-c3cccs3)n2)c1` [CBK286414], the “% of control remaining” value amounted to 91.9534.

Consider `CCC(c1ccc(F)cc1)n1cncc1-c1cnn(C)c1` (stereo not drawn) [CBK281883], for which the “% of control remaining” value was determined as 76.5174.

The values above are taken from publication PMC12040169 (PLOS Biology, 2025).
